Experimental data as given in patent US20160199524A1, “RADIOSENSITIVITY OF FLUOROPHORES AND USE OF RADIOPROTECTIVE AGENTS FOR DUAL-MODALITY IMAGING” (Immunomedics, Inc., priority 2015, published 2016).
Where no end group is shown, it is not given here.

Key:
[1] = tested on: nude mice bearing LS174T human colonic xenografts; assay: Biodistribution of ^18F-labeled agents with or without TF2 pretargeting; settings: TF2 pretargeted, […]
Text: (§1) Six-week-old NCr nu-m female nude mice were implanted s.c. with the human colonic cancer cell line, LS174T (ATCC, Manassas, Va.).
(§2) Tissues were weighed and counted together with a standard dilution prepared from each of the respective products. Due to the short physical half-life of ^18F, standards were interjected between each group of tissues from each animal. Uptake in the tissues is expressed as the counts per gram divided by the total injected activity to derive the percent-injected dose per gram (% ID/g).

[2] = as above; settings: female, NCr nu-m nude, mouse, in vivo, iv, total radioactivity, […] post-injection, i.v., TF2 given 16 h before
Text: as §1, §2

[3] = PET/CT images, region of interest ratios; assay type: in vivo, mice; settings: male, BALB/c nude, mouse, iv, total radioactivity, TF2 pretargeted; read-out: tumor-to-background ratio of PET signal
Description: PET images were acquired with an Inveon animal PET/CT scanner (Siemens Preclinical Solutions, Knoxville, Tenn.). PET emission scans were acquired for 15 minutes, preceded by CT scans for anatomical reference (spatial resolution 113 μm, 80 kV, 500 μA, exposure time 300 msec).
Uptake in the tumor was evaluated quantitatively by drawing regions of interest (ROI), using a 50% threshold of maximum intensity. A region in the abdomen was used as background region.

[4] = Stability of Al^18F(IMP485)/IMP487 in human serum at 37° C.; assay type: in vitro ADME; settings: after 4 h
Description: A kit containing 40 nmol of IMP485 or IMP487, 20 nmol AlCl3, 0.1 mg ascorbic acid and 0.1 g trehalose adjusted to pH 3.9 was reconstituted with purified ^18F^− in 200 μL saline and heated 106° C. for 15 min. The reaction mixture was then diluted with 800 μL water and placed on an HLB column. […] The radiolabeled peptide in […] was mixed with 250 μL of fresh human serum in a vial and incubated at 37° C.
The purified radiolabeled peptide in 50 μL 1:1 EtOH/H2O was mixed with 150 μL of human serum and placed in the HPLC autosampler heated to 37° C. and analyzed by RP-HPLC.

Molecule | Tumor/nontumor ratio, blood [1] | Tumor/nontumor ratio, kidneys [1] | Tumor/nontumor ratio, liver [1] | Tumor/nontumor ratio, lung [1] | tissue uptake at […] ([2]; % ID/g Blood) [%ID/g] | tissue uptake at […] ([2]; % ID/g Brain) [%ID/g] | tissue uptake at […] ([2]; % ID/g Kidney) [%ID/g] | tissue uptake at […] ([2]; % ID/g Large Int.) [%ID/g] | tissue uptake at […] ([2]; % ID/g Liver) [%ID/g] | tissue uptake at […] ([2]; % ID/g Lung) [%ID/g] | tissue uptake at […] ([2]; % ID/g Muscle) [%ID/g] | tissue uptake at […] ([2]; % ID/g Scapula) [%ID/g] | tissue uptake at […] ([2]; % ID/g Small Int.) [%ID/g] | tissue uptake at […] ([2]; % ID/g Spine) [%ID/g] | tissue uptake at […] ([2]; % ID/g Spleen) [%ID/g] | tissue uptake at […] ([2]; % ID/g Stomach) [%ID/g] | tissue uptake at […] ([2]; % ID/g Tumor) [%ID/g] | tissue to tissue ratio at 2 h [3] | ^18F above background at the void volume (RP-HPLC) [4]
C[C@@H](NC(=S)Nc1ccc(CC2CN(CC(=O)O)CCN(CC(=O)O)CCN2CC(=O)O)cc1)C(=O)N[C@H](CCCCNC(=O)CNC(=O)CCC(=O)NCCc1c[nH]cn1)C(=O)N[C@H](Cc1ccc(O)cc1)C(=O)N[C@H](CCCCNC(=O)CNC(=O)CCC(=O)NCCc1c[nH]cn1)C(N)=O (single isomer, unassigned) [Al^18F(IMP449)] | 146±63 | 2.0±1.0 | 59±24 | 38±15 | 0.04 ± 0.02 | 0.01 | 3.44 ± 0.99 | 0.03 ± 0.01 | 0.11 ± 0.03 | 0.17 ± 0.04 | 0.1 ± 0.2 | 0.04 ± 0.02 | 0.27 ± 0.1 | 0.08 ± 0.03 | 0.08 ± 0.02 | 0.12 ± 0.18 | 6.01 ± 1.72 | 66 | –
IMP485: NOTA-MPAA di-HSG hapten-peptide used for pretargeting, structure in FIG. 12 (Lys-Tyr-Lys; not fully specified (residues 1, 2, 3, N-terminus, C-terminus); also: NOTA-MPAA attached, site not shown) | – | – | – | – | – | – | – | – | – | – | – | – | – | – | – | – | – | – | No detectable ^18F above background
